Assay in all cases: cell-based or functional assay
In test [1] the target is intermediate affinity hIL-2 receptor (hIL-2Rβγ) on TF1+IL-2Rβ cells (human) (UniProt P14784).
In test [2] the target is intermediate affinity hIL-2 receptor complex (IL-2Rβγ) (human) (UniProt P14784).
The target of test [3] is high-affinity hIL-2 receptor (IL-2Rαβγ) on NK-92 cells (human) (UniProt P01589).
For test [4], the target named is high-affinity hIL-2 receptor (IL-2Rαβγ) (human) (UniProt P01589).

B1: 1H3-hIgG1-L6-hIL-2 (D20A/F42T) (protein)
heavy: EVQLVESGGGLVQPGRSLKLSCAVSGFTFSDYAMAWVRQAPKKGLEWVATISYDGSRTYYRDSVKGRFTISRDNAKITLYLQMDSLRSEDTATYYCARHGSGYFDYWGQGVMVTVSS[not shown - about 450 residues with a human IgG1 Fc and changes]
light: DTVLTQSPALAVSPGERVTISCRASESVRTGVHWYQQKPGQQPKLLIYGASNLESGVPARFSGSGSGTDFTLTIDPVEADDTATYFCQQSWNDPFTFGSGTKLEIKRTVAAPSVFIFPPSDEQLKSGTASVVCLLNNFYPREAKVQWKVDNALQSGNSQESVTEQDSKDSTYSLSSTLTLSKADYEKHKVYACEVTHQGLSSPVTKSFNRGEC
With B1, in test [1], the Agonistic Activity (TF1 + IL-2Rβ) is 80% and the Fold change from rhIL-2 (TF1 + IL-2Rβ) was 622 fold. The Fold change from hIL-2 (TF1 + IL-2Rβ), pSTAT5 fixed conc. in test [2] is 2 fold. Also, in test [3], the Agonistic Activity (NK-92) was found to be 10% and the Fold change from rhIL-2 (NK-92) was determined as 1470 fold. Further, in test [4], the Fold change from hIL-2 (NK-92), pSTAT5 fixed conc. was determined as 16 fold.

B2: 1H3-hIgG1-L6-hIL-2 (D20A/Y45F) (protein)
heavy: EVQLVESGGGLVQPGRSLKLSCAVSGFTFSDYAMAWVRQAPKKGLEWVATISYDGSRTYYRDSVKGRFTISRDNAKITLYLQMDSLRSEDTATYYCARHGSGYFDYWGQGVMVTVSS[not shown - about 450 residues with a human IgG1 Fc and changes]
light: B1 light
With B2, in test [1], the Agonistic Activity (TF1 + IL-2Rβ) stood at 50% and the Fold change from rhIL-2 (TF1 + IL-2Rβ) amounted to 272 fold. Besides, in test [2], the Fold change from hIL-2 (TF1 + IL-2Rβ), pSTAT5 fixed conc. worked out at 2 fold. In test [3], the Agonistic Activity (NK-92) is 90% and the Fold change from rhIL-2 (NK-92) turned out to be 25 fold. The molecule also showed a Fold change from hIL-2 (NK-92), pSTAT5 fixed conc. in test [4] of 13 fold.

B3: 1H3-hIgG1-L6-hIL-2 (D20A/Y45P) (protein)
heavy: EVQLVESGGGLVQPGRSLKLSCAVSGFTFSDYAMAWVRQAPKKGLEWVATISYDGSRTYYRDSVKGRFTISRDNAKITLYLQMDSLRSEDTATYYCARHGSGYFDYWGQGVMVTVSS[not shown - about 450 residues with a human IgG1 Fc and changes]
light: B1 light
For B3, in test [1], the Fold change from rhIL-2 (TF1 + IL-2Rβ) was found to be 710 fold. The Fold change from hIL-2 (TF1 + IL-2Rβ), pSTAT5 fixed conc. in test [2] was 4 fold. The molecule further displayed a Fold change from rhIL-2 (NK-92) in test [3] of 577 fold. This molecule displayed a Fold change from hIL-2 (NK-92), pSTAT5 fixed conc. in test [4] of 25 fold.

B4: 1H3-hIgG1-L6-hIL-2 (D20A/Y45H) (protein)
heavy: EVQLVESGGGLVQPGRSLKLSCAVSGFTFSDYAMAWVRQAPKKGLEWVATISYDGSRTYYRDSVKGRFTISRDNAKITLYLQMDSLRSEDTATYYCARHGSGYFDYWGQGVMVTVSS[not shown - about 450 residues with a human IgG1 Fc and changes]
light: B1 light
In the case of B4, in test [1], the Agonistic Activity (TF1 + IL-2Rβ) amounted to 60% and the Fold change from rhIL-2 (TF1 + IL-2Rβ) is 427 fold. The Fold change from hIL-2 (TF1 + IL-2Rβ), pSTAT5 fixed conc. in test [2] was found to be 2 fold. In test [3], this molecule showed an Agonistic Activity (NK-92) of 70% and a Fold change from rhIL-2 (NK-92) of 420 fold. The Fold change from hIL-2 (NK-92), pSTAT5 fixed conc. in test [4] was 16 fold.

B5: 1H3-hIgG1-L6-hIL-2 (I92D/F42I) (protein)
heavy: EVQLVESGGGLVQPGRSLKLSCAVSGFTFSDYAMAWVRQAPKKGLEWVATISYDGSRTYYRDSVKGRFTISRDNAKITLYLQMDSLRSEDTATYYCARHGSGYFDYWGQGVMVTVSS[not shown - about 450 residues with a human IgG1 Fc and changes]
light: B1 light
Consider B5, for which the Fold change from rhIL-2 (TF1 + IL-2Rβ) in test [1] was 3640 fold. In test [2], the Fold change from hIL-2 (TF1 + IL-2Rβ), pSTAT5 fixed conc. was 4 fold and the Fold change from rhIL-2 (TF1 + IL-2Rβ), pSTAT5 titration is 117 fold. In test [3], this molecule came in with an Agonistic Activity (NK-92) of 10% and a Fold change from rhIL-2 (NK-92) of 4590 fold. In test [4], this molecule registered a Fold change from hIL-2 (NK-92), pSTAT5 fixed conc. of 31 fold and a Fold change from rhIL-2 (NK-92), pSTAT5 titration above 10000 fold.

B6: 1H3-hIgG1-L6-hIL-2 (D20A/F42V) (protein)
heavy: EVQLVESGGGLVQPGRSLKLSCAVSGFTFSDYAMAWVRQAPKKGLEWVATISYDGSRTYYRDSVKGRFTISRDNAKITLYLQMDSLRSEDTATYYCARHGSGYFDYWGQGVMVTVSS[not shown - about 450 residues with a human IgG1 Fc and changes]
light: B1 light
Consider B6, for which, in test [1], the Agonistic Activity (TF1 + IL-2Rβ) stood at 80% and the Fold change from rhIL-2 (TF1 + IL-2Rβ) was 579 fold. Moreover, in test [2], the Fold change from hIL-2 (TF1 + IL-2Rβ), pSTAT5 fixed conc. is 2 fold. In test [3], this molecule yielded an Agonistic Activity (NK-92) of 30% and a Fold change from rhIL-2 (NK-92) of 5800 fold. Besides, the Fold change from hIL-2 (NK-92), pSTAT5 fixed conc. in test [4] was found to be 18 fold.

B7: 1H3-hIgG1-L6-hIL-2 (D20A/Y45L) (protein)
heavy: EVQLVESGGGLVQPGRSLKLSCAVSGFTFSDYAMAWVRQAPKKGLEWVATISYDGSRTYYRDSVKGRFTISRDNAKITLYLQMDSLRSEDTATYYCARHGSGYFDYWGQGVMVTVSS[not shown - about 450 residues with a human IgG1 Fc and changes]
light: B1 light
For the molecule B7, in test [1], the Agonistic Activity (TF1 + IL-2Rβ) worked out at 70% and the Fold change from rhIL-2 (TF1 + IL-2Rβ) turned out to be 426 fold. Besides, the Fold change from hIL-2 (TF1 + IL-2Rβ), pSTAT5 fixed conc. in test [2] was found to be 2 fold. The molecule also returned a Fold change from rhIL-2 (NK-92) in test [3] of 11 fold. This molecule also came in with a Fold change from hIL-2 (NK-92), pSTAT5 fixed conc. in test [4] of 13 fold.

B8: 1H3-hIgG1-L6-hIL-2 (D20A/Y45I) (protein)
heavy: EVQLVESGGGLVQPGRSLKLSCAVSGFTFSDYAMAWVRQAPKKGLEWVATISYDGSRTYYRDSVKGRFTISRDNAKITLYLQMDSLRSEDTATYYCARHGSGYFDYWGQGVMVTVSS[not shown - about 450 residues with a human IgG1 Fc and changes]
light: B1 light
Turning to B8, in test [1], the Agonistic Activity (TF1 + IL-2Rβ) turned out to be 30% and the Fold change from rhIL-2 (TF1 + IL-2Rβ) is 137 fold. Besides, in test [2], the Fold change from hIL-2 (TF1 + IL-2Rβ), pSTAT5 fixed conc. came out at 2 fold. In addition, in test [3], the Agonistic Activity (NK-92) worked out at 70% and the Fold change from rhIL-2 (NK-92) came out at 39 fold. In test [4], this molecule gave a Fold change from hIL-2 (NK-92), pSTAT5 fixed conc. of 13 fold.

B9: 1H3-hIgG1-L6-hIL-2 (D20A/F42Y) (protein)
heavy: EVQLVESGGGLVQPGRSLKLSCAVSGFTFSDYAMAWVRQAPKKGLEWVATISYDGSRTYYRDSVKGRFTISRDNAKITLYLQMDSLRSEDTATYYCARHGSGYFDYWGQGVMVTVSS[not shown - about 450 residues with a human IgG1 Fc and changes]
light: B1 light
Regarding B9, in test [1], the Agonistic Activity (TF1 + IL-2Rβ) is 70% and the Fold change from rhIL-2 (TF1 + IL-2Rβ) was 545 fold. Also, the Fold change from hIL-2 (TF1 + IL-2Rβ), pSTAT5 fixed conc. in test [2] stood at 2 fold. In addition, in test [3], the Agonistic Activity (NK-92) worked out at 70% and the Fold change from rhIL-2 (NK-92) turned out to be 322 fold. In test [4], this molecule returned a Fold change from hIL-2 (NK-92), pSTAT5 fixed conc. of 17 fold.

The record behind these values is patent US20240076343A1.
